± gives the standard deviation of the averaged measurements. This continues a long series; more values of the same kind are listed elsewhere.
Key:
Test in all cases: normalised percent inhibition of luminescence (vs positive and negative controls); higher = stronger inhibition
[1] = test system: NanoLuc luciferase (NLuc)
Experimental: (§1)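 Concentration-response (>=11 concentrations) of metal salts on purified FLuc, NLuc or RLuc luminescence in screening (SC) or 100 mM HEPES (H) buffer; salt pre-incubated with enzyme 10 min at RT, read 10 min after substrate. Normalised percent inhibition vs plate positive (PTC-124, isradipine, BTS) and DMSO negative controls; triplicate wells.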

[2] = test system: firefly luciferase (FLuc); conditions: screening conditions buffer
Experimental: as §1

[3] = test system: Renilla luciferase (RLuc)
Experimental: as §1

O=[N+]([O-])[O-].[Ag+] [silver nitrate]
normalised percent inhibition [%], [1]
Conditions	metal salt concentration 0.0001 mM	metal salt concentration 0.00025 mM	metal salt concentration 0.0005 mM	metal salt concentration 0.001 mM	metal salt concentration 0.01 mM	metal salt concentration 0.02 mM	metal salt concentration 0.04 mM
100 mM HEPES buffer	–	–	–	–	-0.536 ± 2.3	-2.95 ± 2.9	-5.96 ± 2.4
screening conditions buffer	-0.166 ± 4.4	3 ± 3.5	1.61 ± 0.81	2.52 ± 6.7	–	–	102 ± 0.85

[2]
Conditions	normalised percent inhibition [%]
metal salt concentration 0.1 mM	100.9 ± 0.14
metal salt concentration 0.2 mM	100.6 ± 0.42
metal salt concentration 0.5 mM	100.7 ± 0.14
metal salt concentration 1 mM	100.7 ± 0.14
metal salt concentration 2.5 mM	100.93 ± 0.083
metal salt concentration 5 mM	100.5 ± 0.3

O=[N+]([O-])[O-].O=[N+]([O-])[O-].O=[N+]([O-])[O-].[Ga+3] [gallium(III) nitrate]
normalised percent inhibition [%]
Conditions	[1]	[3]
metal salt concentration 0.0001 mM, 100 mM HEPES buffer	0.704 ± 5.6	-45.6 ± 13
metal salt concentration 0.00025 mM, 100 mM HEPES buffer	-0.623 ± 0.88	-52 ± 17
metal salt concentration 0.0005 mM, 100 mM HEPES buffer	-1.16 ± 1.1	-52.7 ± 20
metal salt concentration 0.000625 mM, screening conditions buffer	0.95 ± 4.1	9.82 ± 13
metal salt concentration 0.001 mM, 100 mM HEPES buffer	-2.73 ± 6.5	-72.7 ± 21
metal salt concentration 0.00125 mM, screening conditions buffer	-4.95 ± 8.5	5.38 ± 3.1
metal salt concentration 0.025 mM, 100 mM HEPES buffer	-1.97 ± 0.99	-44.1 ± 22
metal salt concentration 0.03125 mM, screening conditions buffer	-2.02 ± 2.2	0.0744 ± 4.9
metal salt concentration 0.05 mM, 100 mM HEPES buffer	0.437 ± 0.83	-42.1 ± 26
metal salt concentration 0.0625 mM, screening conditions buffer	3.88 ± 4.5	-9.13 ± 4.5
metal salt concentration 0.1 mM, 100 mM HEPES buffer	0.526 ± 1.9	-9.12 ± 24
metal salt concentration 0.125 mM, screening conditions buffer	1.49 ± 5.9	2.67 ± 13
metal salt concentration 0.5 mM, 100 mM HEPES buffer	3.88 ± 1.6	27.9 ± 16
metal salt concentration 0.625 mM, screening conditions buffer	12.1 ± 2.7	-12.6 ± 10
metal salt concentration 1 mM, 100 mM HEPES buffer	11.4 ± 5.7	83.8 ± 7.1
metal salt concentration 1.25 mM, screening conditions buffer	11.8 ± 7.3	0.399 ± 0.5
metal salt concentration 2.5 mM, 100 mM HEPES buffer	61.7 ± 2.8	96.6 ± 3.1
metal salt concentration 5 mM, 100 mM HEPES buffer	92 ± 0.59	105 ± 1.3
metal salt concentration 7.5 mM, screening conditions buffer	105.5 ± 0.46	92.2 ± 13
metal salt concentration 15 mM, screening conditions buffer	105.8 ± 0.31	106.7 ± 0.33

[2]
Conditions	normalised percent inhibition [%]
metal salt concentration 0.002 mM	-2.69 ± 6.8
metal salt concentration 0.005 mM	37 ± 1.6
metal salt concentration 0.01 mM	50.1 ± 35
metal salt concentration 0.02 mM	99.3 ± 1.1
metal salt concentration 0.05 mM	85.2 ± 16
metal salt concentration 0.1 mM	97.6 ± 3.3
metal salt concentration 0.2 mM	100.2 ± 0.95
metal salt concentration 0.5 mM	100.5 ± 0.45
metal salt concentration 1 mM	100.4 ± 0.47
metal salt concentration 2.5 mM	100.7 ± 0.33
metal salt concentration 5 mM	100.1 ± 0.44

O=[N+]([O-])[O-].O=[N+]([O-])[O-].[Zn+2] [zinc nitrate]
normalised percent inhibition [%]
Conditions	[1]	[3]
metal salt concentration 0.0001 mM, 100 mM HEPES buffer	5.22 ± 2.1	-31.2 ± 13
metal salt concentration 0.00025 mM, 100 mM HEPES buffer	-3.82 ± 3.5	-43.5 ± 27
metal salt concentration 0.0005 mM, 100 mM HEPES buffer	4.57 ± 3.4	-52.2 ± 8.1
metal salt concentration 0.0005 mM, screening conditions buffer	-1.22 ± 9	-0.0338 ± 8.8
metal salt concentration 0.001 mM, 100 mM HEPES buffer	2.29 ± 3.5	-48.7 ± 14
metal salt concentration 0.001 mM, screening conditions buffer	3.62 ± 6.9	4.3 ± 9
metal salt concentration 0.025 mM, 100 mM HEPES buffer	12.8 ± 3.3	-29.3 ± 24
metal salt concentration 0.025 mM, screening conditions buffer	9.18 ± 3.4	-1.98 ± 9.4
metal salt concentration 0.05 mM, 100 mM HEPES buffer	35.8 ± 2.5	-19.3 ± 26
metal salt concentration 0.1 mM, 100 mM HEPES buffer	47 ± 1.8	-10.8 ± 20
metal salt concentration 0.5 mM, 100 mM HEPES buffer	64.7 ± 1.2	82.9 ± 6.9
metal salt concentration 1 mM, 100 mM HEPES buffer	77.1 ± 2	97.4 ± 2
metal salt concentration 2.5 mM, 100 mM HEPES buffer	85 ± 1.2	103 ± 3.7
metal salt concentration 5 mM, 100 mM HEPES buffer	87 ± 0.9	106 ± 2.2
metal salt concentration 10 mM, 100 mM HEPES buffer	89.1 ± 1.3	–
metal salt concentration 10 mM, screening conditions buffer	101.8 ± 0.56	106.7 ± 0.56
metal salt concentration 20 mM, 100 mM HEPES buffer	94.98 ± 0.93	–
metal salt concentration 20 mM, screening conditions buffer	104.2 ± 0.41	106.2 ± 0.82

O=[N+]([O-])[O-].O=[N+]([O-])[O-].[Cd+2] [cadmium nitrate]
[2]
Conditions	normalised percent inhibition [%]
metal salt concentration 0.002 mM	-9.3 ± 8.3
metal salt concentration 0.005 mM	-6.36 ± 13
metal salt concentration 0.01 mM	-10.6 ± 5.5
metal salt concentration 0.02 mM	-4.86 ± 4.6
metal salt concentration 0.05 mM	-7.32 ± 14
metal salt concentration 0.1 mM	-4.76 ± 7.9
metal salt concentration 0.2 mM	-1.48 ± 10
metal salt concentration 0.5 mM	20.6 ± 16
metal salt concentration 1 mM	100.5 ± 0.51
metal salt concentration 2.5 mM	100.93 ± 0.083
metal salt concentration 5 mM	100.9 ± 0.17

O=[N+]([O-])[O-].O=[N+]([O-])[O-].[Pb+2] [lead(II) nitrate]
normalised percent inhibition [%], 100 mM HEPES buffer
Conditions	[1]	[3]
metal salt concentration 0.0001 mM	0.467 ± 1.9	-54.8 ± 13
metal salt concentration 0.00025 mM	1.23 ± 4.3	-83.6 ± 15
metal salt concentration 0.0005 mM	1.85 ± 1.4	-40.9 ± 19
metal salt concentration 0.000625 mM	–	-8.09 ± 18
metal salt concentration 0.001 mM	1.09 ± 3.6	-62.2 ± 14
metal salt concentration 0.00125 mM	–	0.57 ± 13
metal salt concentration 0.025 mM	0.341 ± 2.4	-44.8 ± 12
metal salt concentration 0.03125 mM	–	7.41 ± 27
metal salt concentration 0.05 mM	-1.3 ± 3.5	-31.5 ± 9.7
metal salt concentration 0.0625 mM	–	20.2 ± 16
metal salt concentration 0.1 mM	2.71 ± 4	-33.8 ± 36
metal salt concentration 0.125 mM	–	4.22 ± 25
metal salt concentration 0.5 mM	42.8 ± 4.5	55.1 ± 13
metal salt concentration 0.625 mM	–	71.7 ± 22
metal salt concentration 1 mM	78.5 ± 2.5	61.9 ± 7
metal salt concentration 1.25 mM	–	73 ± 10
metal salt concentration 2.5 mM	92.15 ± 0.76	71.3 ± 14
metal salt concentration 5 mM	94.75 ± 0.33	72.1 ± 12
metal salt concentration 10 mM	–	101 ± 3.6
metal salt concentration 20 mM	–	108 ± 3.4

[2]
Conditions	normalised percent inhibition [%]
metal salt concentration 0.002 mM	-2.87 ± 12
metal salt concentration 0.005 mM	-1.41 ± 16
metal salt concentration 0.01 mM	4.91 ± 13
metal salt concentration 0.02 mM	18.4 ± 16
metal salt concentration 0.05 mM	16.3 ± 14
metal salt concentration 0.1 mM	20.2 ± 24
metal salt concentration 0.2 mM	15.8 ± 22
metal salt concentration 0.5 mM	13.7 ± 14
metal salt concentration 1 mM	92.8 ± 2.9
metal salt concentration 2.5 mM	99.3 ± 1.1
metal salt concentration 5 mM	99.7 ± 1.2

O=[N+]([O-])[O-].O=[N+]([O-])[O-].[Cu+2] [copper(II) nitrate]
[3], 100 mM HEPES buffer
Conditions	normalised percent inhibition [%]
metal salt concentration 1 mM	107 ± 1.2
metal salt concentration 2.5 mM	107 ± 1.1
metal salt concentration 5 mM	106 ± 1.1

[2]
Conditions	normalised percent inhibition [%]
metal salt concentration 0.002 mM	15.6 ± 17
metal salt concentration 0.005 mM	13.8 ± 31
metal salt concentration 0.01 mM	26 ± 25
metal salt concentration 0.02 mM	24.1 ± 28
metal salt concentration 0.05 mM	16.2 ± 30
metal salt concentration 0.1 mM	31.6 ± 20
metal salt concentration 0.2 mM	98.3 ± 3.5
metal salt concentration 0.5 mM	100.6 ± 0.38
metal salt concentration 1 mM	100.6 ± 0.29
metal salt concentration 2.5 mM	100.7 ± 0.36
metal salt concentration 5 mM	100.9 ± 0.14

Source: the supplement of paper PMC11628255, “Interference of metal ions on the bioluminescent signal of firefly, Renilla, and NanoLuc luciferases in high-throughput screening assays” (Frontiers in Chemistry, 2024)
